# These are yes or no findings as the source states them, for the method shown. In cells and extracts the contact can be indirect. Some binding calls cover weakened binding; strength is not graded here. For part of these data: Where a sequence is shown, tags or fusion partners need not be part of it.
# Chains of the proteins cited; added tags and fusions are not shown.
# UniProt Q00987: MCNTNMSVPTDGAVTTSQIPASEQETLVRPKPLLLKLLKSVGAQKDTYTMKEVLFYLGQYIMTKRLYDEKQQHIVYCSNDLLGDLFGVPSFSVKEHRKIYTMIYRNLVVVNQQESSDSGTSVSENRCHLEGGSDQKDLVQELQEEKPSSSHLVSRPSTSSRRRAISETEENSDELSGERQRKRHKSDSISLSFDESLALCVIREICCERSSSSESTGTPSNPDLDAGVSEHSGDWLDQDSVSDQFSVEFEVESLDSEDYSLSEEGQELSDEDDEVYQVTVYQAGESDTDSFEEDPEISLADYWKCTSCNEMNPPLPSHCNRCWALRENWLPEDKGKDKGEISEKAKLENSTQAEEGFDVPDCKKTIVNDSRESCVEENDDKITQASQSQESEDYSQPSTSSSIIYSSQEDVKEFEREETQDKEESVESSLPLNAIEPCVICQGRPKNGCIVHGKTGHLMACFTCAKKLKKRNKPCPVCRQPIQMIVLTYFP
# Experiments:
# Flag–Mdm2 = Flag–Mdm2 (UniProt Q00987); test: co-IP; HEK293T cells transfected with tagged proteins, lysed 24 h later (MG132 20 µM for 6 h before lysis); IP buffer 50 mM Tris-HCl pH 7.4, 150 mM NaCl, 1.5 mM MgCl2, 1 mM EDTA, 0.5% NP-40, 0.5% Triton X-100, 10% glycerol; western blot
# Flag–USP7 = Flag–USP7 (UniProt Q93009); test: as above
# [1] = target: USP7, exogenously expressed (tag not shown) (UniProt Q93009); test: proximity ligation; Duolink In Situ Red Starter Kit on fixed, permeabilised cells with exogenously expressed proteins; isotype-matched rabbit and mouse IgG as negative control
# [2] = target: p53, exogenously expressed (tag not shown) (UniProt P04637); test: as above
# [3] = target: USP7, exogenously expressed (tag not shown) (UniProt Q93009); test: co-IP; immunoprecipitation assays with deletion mutants of MLF2 and of USP7 (Figure S3C–E); cells and tags not shown
# Flag–p53 = Flag–p53 (UniProt P04637); test: co-IP; HEK293T cells transfected with tagged proteins, lysed 24 h later (MG132 20 µM for 6 h before lysis); IP buffer 50 mM Tris-HCl pH 7.4, 150 mM NaCl, 1.5 mM MgCl2, 1 mM EDTA, 0.5% NP-40, 0.5% Triton X-100, 10% glycerol; western blot
binder,measurement,setting,value
"HA–MLF2 (protein, UniProt Q15773 1-248) MFRFMRDVEPEDPMFLMDPFAIHRQHMSRMLSGGFGYSPFLSITDGNMPGTRPASRRMQQAGAVSPFGMLGMSGGFMDMFGMMNDMIGNMEHMTAGGNCQTFSSSTVISYSNTGDGAPKVYQETSEMRSAPGGIRETRRTVRDSDSGLEQMSIGHHIRDRAHILQRSRNHRTGDQEERQDYINLDESEAAAFDDEWRRETSRFRQQRPLEFRRLESSGAGGRRAEGPPRLAIQGPEDSPSRQSRRYDW",binding,Flag–Mdm2,no binding
same,binding,Flag–USP7,binds
"MLF2, exogenously expressed (tag not shown) (protein, UniProt Q15773 1-248) MFRFMRDVEPEDPMFLMDPFAIHRQHMSRMLSGGFGYSPFLSITDGNMPGTRPASRRMQQAGAVSPFGMLGMSGGFMDMFGMMNDMIGNMEHMTAGGNCQTFSSSTVISYSNTGDGAPKVYQETSEMRSAPGGIRETRRTVRDSDSGLEQMSIGHHIRDRAHILQRSRNHRTGDQEERQDYINLDESEAAAFDDEWRRETSRFRQQRPLEFRRLESSGAGGRRAEGPPRLAIQGPEDSPSRQSRRYDW",binding,[1],binds
same,binding,[2],binds
"MLF2 (aa 1–150) (domain or fragment, UniProt Q15773 1-150) MFRFMRDVEPEDPMFLMDPFAIHRQHMSRMLSGGFGYSPFLSITDGNMPGTRPASRRMQQAGAVSPFGMLGMSGGFMDMFGMMNDMIGNMEHMTAGGNCQTFSSSTVISYSNTGDGAPKVYQETSEMRSAPGGIRETRRTVRDSDSGLEQ",binding,[3],binds
"GFP–MLF2 (protein, UniProt Q15773 1-248) MFRFMRDVEPEDPMFLMDPFAIHRQHMSRMLSGGFGYSPFLSITDGNMPGTRPASRRMQQAGAVSPFGMLGMSGGFMDMFGMMNDMIGNMEHMTAGGNCQTFSSSTVISYSNTGDGAPKVYQETSEMRSAPGGIRETRRTVRDSDSGLEQMSIGHHIRDRAHILQRSRNHRTGDQEERQDYINLDESEAAAFDDEWRRETSRFRQQRPLEFRRLESSGAGGRRAEGPPRLAIQGPEDSPSRQSRRYDW",binding,Flag–p53,binds
